Laboratory results taken from PubChem BioAssay AID1671188 (National Center for Advancing Translational Sciences (NCATS), 2021).
Where “and” joins values, the source holds several entries; their conditions need not be identical. Equal values may be shown once. About 250 (0.25%) of roughly 100,000 compounds were called active. This list was built around the results that the source calls inconclusive (neither active nor inactive); the mix of calls is not that of the screen. Calls come from the whole dose curve; as a rule, active = well fitted inhibition curve with a large enough effect; inconclusive = small, poorly fitted or top-dose-only effect; inactive = flat fitted curve, though single readings scatter. Potencies beside an inconclusive call are fits to weak or partial responses and may not hold up.

target: Alanine aminotransferase 2 (Homo sapiens) (UniProt Q8TD30); assay: Primary qHTS assay for inhibitors of Glutamate pyruvate transaminase 2 (GPT2); conditions: Recombinant GPT2, coupled pyruvate oxidase/HRP Amplex Red fluorescence; activity change, negative = inhibition: at 57.7 µM (top of the series) unless noted; series mostly up to 57.7 µM; note: nearly all actives have a fitted effect of over 60% in size
Chain of UniProt Q8TD30 (Q8TD30 whole entry, looked up): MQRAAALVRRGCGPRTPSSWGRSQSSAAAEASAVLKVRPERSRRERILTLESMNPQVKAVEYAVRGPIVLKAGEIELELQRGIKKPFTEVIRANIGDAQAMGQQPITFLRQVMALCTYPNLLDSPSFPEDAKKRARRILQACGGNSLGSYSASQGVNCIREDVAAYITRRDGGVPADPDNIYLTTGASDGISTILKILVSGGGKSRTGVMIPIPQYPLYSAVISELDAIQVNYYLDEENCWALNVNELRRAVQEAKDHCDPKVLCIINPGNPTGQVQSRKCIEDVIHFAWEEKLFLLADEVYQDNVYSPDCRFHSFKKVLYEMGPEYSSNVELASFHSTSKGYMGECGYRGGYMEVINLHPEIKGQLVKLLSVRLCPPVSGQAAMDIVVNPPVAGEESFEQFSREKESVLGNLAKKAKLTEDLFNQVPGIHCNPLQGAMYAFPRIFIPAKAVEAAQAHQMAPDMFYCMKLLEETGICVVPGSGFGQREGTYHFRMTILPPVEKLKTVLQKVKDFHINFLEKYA
How it was run: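 Inhibition is scored from Amplex Red fluorescence generated when pyruvate oxidase and HRP act on pyruvate released by GPT2. Reactions contain 10ng/uL enzyme, 250uM a-KG and 2mM L-alanine and run 30 min at room temperature.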
% is set by controls: 0 for no effect and ±100 for the full control effect; potency is the fitted concentration of half-maximal effect; tags give direction and shape of the fitted curve.

Row | Structure (SMILES) | Potency | outcome | activity change, negative = inhibition
1 | CCCCN1C(=O)CC[C@H]2CN(C(=O)Cc3c[nH]c(=O)n(C)c3=O)CC[C@H]21 | inconclusive: 1.41 µM [inhibitor, full curve, poor fit] | – | –
2 | O=C(Nc1cccc(F)c1)C1CCN(C(=O)c2ncn3c2COC(c2ccc(F)cc2)C3)CC1 (stereo not given) | inconclusive: 39.8 µM [inhibitor, partial curve, poor fit] | – | –
3 | COc1ccc(CNC(=O)c2ccc(-c3ccc(N4CCSCC4)nc3)cc2)cc1OC | – | inactive | –
4 | Cc1cc2ncc(C(=O)NCc3ccc(F)cc3)cn2n1 | inconclusive: 56.2 µM [inhibitor, partial curve, poor fit] | – | –
5 | CN1C(=O)CC[C@H]1c1cccnc1 | inactive | – | –
6 | COCC(=O)NC[C@@H]1C=C(C)[C@H](Cc2nc3ccc(C)cc3[nH]2)C[C@H]1C(C)C | inconclusive: 11.2 µM [inhibitor, partial curve] | – | –
7 | Cc1ccc(C(=O)N2CCC3(CC2)NC(=O)N(c2ccccc2Cl)N3)cc1C | inconclusive: 39.8 µM [inhibitor, single point] | – | –
8 | CC(C)c1nc2c(c(-c3ccc(O)cc3)n1)CCN(C(=O)c1cccc(Cl)c1)CC2 | – | inactive | –
9 | O=C(c1c[nH]c(=O)[nH]1)N1CC[C@@H]2[C@@H](CCC(=O)N2CC2CCNCC2)C1 | inconclusive: 8.91 µM [inhibitor, partial curve, poor fit] | – | –
10 | O=S(=O)(c1cccc(F)c1)N1CCC(OC2CCN(Cc3ccccc3)CC2)CC1 | – | inactive | –
11 | CC(C)c1noc(-c2cccn3c(CNC(=O)c4cccc(F)c4)nnc23)n1 | – | – | inactive: 4.78%
12 | C=CCC/C=C/C#CCCCCCCCC[C@H]1C(=O)O[C@H](C)[C@@H]1O | inconclusive: 2.24 µM [inhibitor, full curve, poor fit] | – | –
13 | O=C1CCN(S(=O)(=O)c2ccccc2)CCCC(C(=O)NCCc2cccnc2)CCN1 (stereo not given) | inconclusive: 7.08 µM [inhibitor, single point] | – | –
14 | CC(=O)N1CCCN(c2ccc(-c3nc(-c4ccccc4F)no3)cn2)CC1 | – | inactive | –
15 | CC(=O)N1CCN(C(=O)c2cc(-c3cccc(C(F)(F)F)c3)nc3c2cnn3C)CC1 | inconclusive: 39.8 µM [inhibitor, single point] | – | –
16 | O=C(c1cc2n(n1)CC(c1ccc3c(c1)OCO3)OC2)N1CCCCC1 (stereo not given) | – | inactive | –
17 | C[C@@H]1CC[C@]2(C(=O)O)CC[C@]3(C)C(=CCC4[C@@]5(C)C[C@@H](O)[C@@H](O)C(C)(C)C5CC[C@]43C)C2[C@]1(C)O (stereo not given in full) | inconclusive: 20 µM [inhibitor, single point] | – | –
18 | CCC(C)C(=O)Nc1c(C(=O)OC)n(CC2CCCO2)c2ncc(NC(C)CCO)cc12 (stereo not given) | inconclusive: 39.8 µM [inhibitor, single point] | – | –
19 | CC(C)c1nc2c(c(-c3ccc(Cl)cc3)n1)CCN(Cc1ccc(C(F)(F)F)cc1)CC2 | inconclusive: 6.31 µM [inhibitor, single point] | – | –
20 | O=C(N[C@@H]1CCOC[C@H]1OCCO)C1CCN(Cc2ccco2)CC1 | inconclusive: 39.8 µM [inhibitor, single point] | – | –
21 | c1cnc2c(c1)ncn2C1CC1 | inconclusive: 112 µM [inhibitor, single point] | – | –
22 | Clc1ccc(C2Cn3nnc(-c4nc(-c5ccccc5Br)no4)c3CO2)cc1 (stereo not given) | – | inactive | –

Row | Structure (SMILES) | Potency | outcome | activity change, negative = inhibition
23 | O=C(CCC[C@H]1NC[C@@H]2C[C@H]1CN(Cc1ccccc1)C2)N1CCN(C2CCCC2)CC1 | inconclusive: 3.16 µM [inhibitor, partial curve, poor fit] | – | –
24 | Cc1ccccc1NCc1nc2c(n1Cc1ccccc1)C(=O)N(C)CCN2 | – | – | inactive: -11.4% [at 88.5 µM]
25 | COc1cccc(CN(C)Cc2ccc(C)o2)c1O | – | inactive | –
26 | COc1ccc(NC(=O)NC[C@H]2COCc3nc4ccccc4n32)cc1 | – | – | inactive: 4.24% [at 88.5 µM]
27 | CN(Cc1ccc(OC(F)(F)F)cc1)C(=O)C1(c2ccc(Cl)cc2)CCOCC1 | inconclusive: 31.6 µM [inhibitor, single point] | – | –
28 | Nc1nc(NCc2ccc(Cl)cc2Cl)cc(C2CC(O)C2)n1 (stereo not given) | – | inactive | –
29 | CCc1ccc(-c2nc(CSCC(=O)NCCc3ccccc3)c(C)o2)cc1 | inconclusive: 1 µM [inhibitor, partial curve, poor fit] | – | –
30 | CCOc1ccccc1NC(=O)c1c(OC)cc(=O)n2c1CCCC2 | – | inactive | –
31 | O=C(Nc1ccccc1)c1nc2c(o1)CCN(Cc1ccccc1)CC2 | – | – | inactive: 1.15% [at 88.5 µM]
32 | Cc1cccc(CC(=O)N2CCCN(c3cc(-c4ccc(Br)cc4)[nH]n3)CC2)c1 | inconclusive: 28.2 µM [inhibitor, single point] | – | –
33 | OCC1CN(C2CCC2)CC12CCN(Cc1ccc(F)cc1)CC2 (stereo not given) | – | – | inactive: -1.69%
34 | Cn1ncc2c(C(=O)NCc3cccs3)cc(-c3ccc(Cl)nc3)nc21 | inconclusive: 4.47 µM [inhibitor, single point] | – | –
35 | COc1ccccc1N1CCN(CCCCNC(=O)c2ccc(-c3ccc(C(C)=O)cc3)cc2)CC1 | inconclusive: 39.8 µM [inhibitor, single point] | – | –
36 | COC(=O)N1CCn2c(nnc2-c2ccc(OC)cc2)C1 | – | inactive [at 88.5 µM] | –
37 | CC(C)n1cc(C(=O)N2CC[C@H](N3CCOCC3)[C@H](CCC(=O)O)C2)cn1 | inconclusive: 3.16 µM [inhibitor, full curve, poor fit] | – | –
38 | O=C(NCc1ccccn1)C1CCCN(c2nc3ncccc3o2)C1 (stereo not given) | – | – | inactive: -6.64% [at 88.5 µM]
39 | CNC(=O)N1CCc2c(sc3ncnc(N(C)C)c23)C1 | – | – | inactive: -19.3%
40 | O=C(NCc1ccccc1)C1CCN(C(=O)N2CC3CC(C2)[C@H]2CCCC(=O)N2C3)CC1 (stereo not given in full) | inconclusive: 3.55 µM [inhibitor, single point] | – | –
41 | Nc1nc(C2CC(N)C2)cc(N2CCC(C(=O)NCc3ccccn3)CC2)n1 (stereo not given) | inconclusive: 35.5 µM [inhibitor, single point] | – | –
42 | CCO[C@H]1CN(C(=O)c2cn3cc(Cl)ccc3n2)C[C@@H]1O | inconclusive: 39.8 µM [inhibitor, partial curve, poor fit] | – | –
43 | O=C(c1ccnc2ccccc12)N1CCC2(CC1)Nc1ccccc1NC2=O | inconclusive: 25.1 µM [inhibitor, partial curve, poor fit] | – | –
44 | Cc1nn(CC(=O)NCC2CCCO2)c(=O)c2nc(-c3ccccc3)sc12 (stereo not given) | inconclusive: 39.8 µM [inhibitor, single point] | – | –

Row | Structure (SMILES) | Potency | outcome | activity change, negative = inhibition
45 | Cc1cn2nc(C(=O)NCCc3cccs3)cc2c(N2CCCC2)n1 | inconclusive: 39.8 µM [inhibitor, single point] | – | –
46 | Cc1ccc(-c2nocc2CCC(=O)O)cc1 | inconclusive: 25.1 µM [inhibitor, partial curve, poor fit] | – | –
47 | Clc1cc(NCCC2CCCCC2)n2nccc2n1 | inconclusive: 6.31 µM [inhibitor, single point] | – | –
48 | CC(C)c1ccc(N2CC(C(=O)N(C)C3CCSCC3)CC2=O)cc1 (stereo not given) | inconclusive: 39.8 µM [inhibitor, single point] | – | –
49 | O=C(c1ccc(Cl)nc1)N1CCC(C(=O)N2CCC(c3ccccc3)CC2)CC1 | – | inactive | –
50 | CC(=O)N1CCC(c2nnc3n2C(C(=O)NCc2ccc(F)cc2)CC3)CC1 (stereo not given) | inconclusive: 4.47 µM [inhibitor, single point] | – | –
51 | COc1ccc(-c2cc(N3CCCC(NC(=O)c4ccc(N(C)C)cc4)C3)n[nH]2)cc1 (stereo not given) | – | inactive | –
52 | O=C(c1ccoc1)N1CC(Oc2cccc(-c3nc(-c4ccccc4)no3)c2)C1 | – | inactive | –
53 | C[C@H]1[C@@H]2[C@@H](O)C([C@H](C)C(=O)NCc3cccnc3)CC[C@@]2(C)CC[C@@H]1NC(=O)c1ccc(C#N)cc1 (stereo not given in full) | inconclusive: 7.08 µM [inhibitor, single point] | – | –
54 | O=C1CCC(C(=O)N2CCSCC2)CN1CCc1cccc(F)c1 (stereo not given) | inconclusive: 7.08 µM [inhibitor, single point] | – | –
55 | c1coc(-c2nc3ccncc3[nH]2)c1 | inconclusive: 70.8 µM [inhibitor, single point] and active: 31.6 µM | – | –
56 | Cc1ccccc1NC(=O)Nc1ccnn1C1CCN(C(=O)[C@@H](N)CO)CC1 | inconclusive: 5.62 µM [inhibitor, full curve] | – | –
57 | CN(C)Cc1cn(CC2CCN(C(=O)c3ccc4c(c3)OCO4)CC2)nn1 | inconclusive: 2.51 µM [inhibitor, full curve, poor fit] | – | –
58 | CC[C@H]1CN(C(=O)c2ccc(F)cc2)CC[C@H]1CC(=O)NC1CCCC1 | inconclusive: 56.2 µM [inhibitor, single point] | – | –
59 | CCN1C(=O)Cc2ccccc2C1C(=O)NCc1cccc(F)c1 (stereo not given) | inconclusive: 0.794 µM [inhibitor, full curve, poor fit] | – | –
60 | Cc1cn2nc(C(=O)N3CCC(NC(=O)c4cc(Cl)ccc4F)CC3)cc2c(=O)[nH]1 | – | inactive | –
61 | OCc1c[nH]c2ccccc12 | inconclusive: 31.6 µM [inhibitor, partial curve, poor fit] | – | –
62 | Cc1ccc(C)c(C(=O)N2CCC3(CC2)NC(=O)N(c2cccc(F)c2)N3)c1 | inconclusive: 22.4 µM [inhibitor, partial curve] | – | –
63 | N#CCNC(=O)c1ccc(-c2ccnc(Nc3ccc(N4CCOCC4)cc3)n2)cc1 | inconclusive: 10.9 µM [inhibitor, full curve] and inconclusive: 11.2 µM [inhibitor, partial curve, poor fit] | – | –
64 | COCCCNc1ncnc2c1CN(c1cccc(C)c1)C(=O)CN2C | inconclusive: 39.8 µM [inhibitor, single point] | – | –
65 | COc1ccccc1N1CCN(C(=O)[C@H]2O[C@H](CCN3CCN(c4ccccc4)CC3)CC[C@@H]2O)CC1 | inconclusive: 3.55 µM [inhibitor, single point] | – | –
